Measurements taken from the supplement of paper PMC3334620.
In all, about 33,000 sequences were measured (“E-score (-0.5 to 0.5)”: median about -0.053, highest 2% from about 0.37 on). This is one part of the list.

molecular target: Hap1 (UniProt P0CE41); test: PBM E-score (8-mer binding enrichment) (E-score (-0.5 to 0.5)); higher = stronger / more preferred TF binding; most listed sequences are background and not binding sites; details: protein concentration: 200 nM; construct: GST-DNA-binding domain
How it was run: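 Each ungapped eight-base word and its reverse complement, pooled, received an E-score from the Universal PBM Analysis Suite. Underlying scans, normalised with masliner, recorded fluorescent anti-GST bound to GST-tagged yeast transcription factors. These were applied at about 100-200 nM to universal all-10-mer Agilent arrays double-stranded by primer extension.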

Sequence of UniProt P0CE41 (P0CE41 whole entry, the tested form may be a part): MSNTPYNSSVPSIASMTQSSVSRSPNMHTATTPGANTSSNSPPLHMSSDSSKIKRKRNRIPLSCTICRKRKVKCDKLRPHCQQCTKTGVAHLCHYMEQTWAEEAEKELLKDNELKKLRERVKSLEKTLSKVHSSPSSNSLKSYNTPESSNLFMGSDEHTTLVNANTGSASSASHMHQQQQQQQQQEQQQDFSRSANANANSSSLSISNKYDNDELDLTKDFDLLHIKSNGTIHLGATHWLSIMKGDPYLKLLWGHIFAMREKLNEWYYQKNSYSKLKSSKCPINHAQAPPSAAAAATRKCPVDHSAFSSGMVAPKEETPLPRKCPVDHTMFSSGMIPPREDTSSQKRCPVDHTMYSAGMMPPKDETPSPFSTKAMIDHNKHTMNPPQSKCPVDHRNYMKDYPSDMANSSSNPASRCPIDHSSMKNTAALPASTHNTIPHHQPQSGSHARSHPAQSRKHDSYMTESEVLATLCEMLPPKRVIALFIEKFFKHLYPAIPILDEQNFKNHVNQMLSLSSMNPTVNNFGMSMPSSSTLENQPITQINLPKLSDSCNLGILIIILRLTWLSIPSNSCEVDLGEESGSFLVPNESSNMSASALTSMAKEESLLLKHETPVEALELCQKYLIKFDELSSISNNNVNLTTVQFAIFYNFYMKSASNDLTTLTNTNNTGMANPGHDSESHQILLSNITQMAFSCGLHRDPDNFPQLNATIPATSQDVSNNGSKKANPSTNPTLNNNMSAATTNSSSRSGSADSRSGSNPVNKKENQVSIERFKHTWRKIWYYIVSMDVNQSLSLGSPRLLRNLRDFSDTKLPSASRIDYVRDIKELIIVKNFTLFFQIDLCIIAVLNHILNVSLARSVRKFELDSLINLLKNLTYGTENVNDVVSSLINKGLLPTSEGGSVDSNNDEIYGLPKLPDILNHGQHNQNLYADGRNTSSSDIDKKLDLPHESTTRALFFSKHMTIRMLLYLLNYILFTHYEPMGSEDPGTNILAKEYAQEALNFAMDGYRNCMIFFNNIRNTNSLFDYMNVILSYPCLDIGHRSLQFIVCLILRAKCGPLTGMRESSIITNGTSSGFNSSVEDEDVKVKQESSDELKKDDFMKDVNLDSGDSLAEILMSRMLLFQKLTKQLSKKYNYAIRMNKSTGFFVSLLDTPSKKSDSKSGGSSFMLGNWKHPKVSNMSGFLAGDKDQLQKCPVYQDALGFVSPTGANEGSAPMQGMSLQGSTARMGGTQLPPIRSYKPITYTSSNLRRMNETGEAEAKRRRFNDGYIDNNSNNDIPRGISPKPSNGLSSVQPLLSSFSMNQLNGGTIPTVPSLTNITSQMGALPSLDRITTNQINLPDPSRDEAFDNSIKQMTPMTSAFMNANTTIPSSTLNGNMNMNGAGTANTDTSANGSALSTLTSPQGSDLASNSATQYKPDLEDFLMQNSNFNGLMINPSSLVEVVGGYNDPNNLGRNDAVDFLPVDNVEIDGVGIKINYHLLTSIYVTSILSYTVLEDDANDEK

Sequence | PBM E-score
CATATCAG | -0.155
CGGTTGAC | 0.244
AGATTCTG | -0.14
CGTAAAGA | 0.0556
CAGACCCA | -0.25
CTGCTAGA | -0.089
CGATTGAC | -0.0683
ATACGGGA | 0.128
ACCCGACA | 0.258
CCTATATA | -0.0101
CAAGCTAA | -0.225
ACGCCAGA | -0.204
AGACTCCG | 0.188
CGCGGTGC | 0.0907
AGGGGAGG | 0.0355
ATCCACAT | -0.0411
AAACAGTG | -0.161
CAACTTCG | 0.022
CTTCCTGA | -0.104
AGCGTCCA | -0.157
AATATTTG | -0.158
CTATCGTC | -0.0802

Sequence | PBM E-score
ACGAAAAC | 0.124
CTGGCTTC | -0.194
AAAGTCGT | -0.201
AAGCGGCT | 0.0723
ATCCCAAC | -0.239
CAAAACTG | -0.0453
AAGGACGT | -0.191
TATGGGGA | 0.0131
ACATGCCG | 0.117
TAGCGCTA | 0.0526
ATCGGTAC | 0.256
ATCATAGA | 0.0299
CGACTGCC | -0.12
ATTAAACG | 0.0351
ACAGCTCG | 0.0742
GACCTTCA | -0.0619
CTAGTAAA | 0.0494
ACAGGCGA | -0.069
AAGACTAA | -0.0141
ATGTCACA | -0.306
TGATGGAA | -0.238
AATGTGAG | -0.236

Sequence | PBM E-score
GTTTAAAA | -0.12
AGAATGCG | 0.0568
AGCAGCCG | 0.106
TCAGCCAA | -0.248
ATCTCGCA | -0.0225
ATGTTGGC | 0.0645
AAGTGACC | -0.0672
CGAAGGCA | -0.11
CCTTTGAC | -0.205
CTCTTGGC | -0.29
CGCGTCAC | -0.174
ATTTCAGG | -0.0459
GCCATTGA | -0.0815
CCAACTTA | 0.0877
GAAGCTGC | -0.0136
ACAGGACA | 0.0445
CGCACTGA | -0.0783
GCTAAGGA | -0.266
ACCCGCCG | 0.331
GGACACTA | 0.0258
ACACCCAA | -0.105
AGTATCGA | -0.048

Sequence | PBM E-score
AGGCATTG | -0.124
TACGAATA | -0.228
CGACAGCG | 0.179
GTACCTAC | -0.275
CTCACCGA | 0.157
ACCTGTTA | -0.105
ACTTTTGC | -0.0819
CTAGCGTA | -0.16
AGACTAGC | -0.356
AAGTTGCT | -0.0986
ACTACTCC | 0.24
GATGTATA | -0.0187
TCCTGGAA | -0.0863
CCCACACC | -0.135
GGTGTTCA | 0.00746
AGCAGCAT | -0.158
CGAGCTGA | 0.0746
AGGTGACC | -0.183
CTGACGGA | 0.172
ACACCAAG | -0.219
AATCGAGC | -0.0481
AACTTCTG | -0.205

Sequence | PBM E-score
CCGCGTAC | 0.125
ACCGACGC | 0.142
CCAAGGGA | -0.145
CACGGCGA | 0.0656
CCTTCACA | -0.275
GAAAGCAC | -0.0481
ATGAATCG | 0.0536
GCAGTGGA | -0.13
ACACTTAG | -0.0772
AGCGGGAC | 0.104
GATTACGA | 0.0843
GATGGAGC | -0.0558
GACTGCCC | -0.0849
AAGGCTAA | -0.0963
GTTTGTAA | -0.0808
CCCAGATC | -0.0435
CAAGAGTC | -0.16
ACATTCTG | -0.194
ATACCCGG | 0.38
GCATAACC | 0.131
ATGGAAAC | -0.0981
